Experimental data published in the RNAGym collection of RNA variant scans (doi:10.1093/nar/gkz1192).
Read counts are not given, so values of variants with three or more changes are uncertain.

B1: CPEB3 Ribozyme (parent)
chain: UAACAGGGGGCCACAGCAGAAGCGUUCACGUCGCAGCCCCUGUCAGAUUCUGGUGAAUCUGCGAAUUCUGCUGUAUAUCUC

Variants of: B1
Assay: self-cleavage, relative activity (ratio to wild type); higher = more cleavage; in vitro, sequencing
Outline: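 Libraries of CPEB3 self-cleaving ribozyme mutants came from rounds of error-prone PCR and carried barcodes, which DNA sequencing matched to variants. In vitro transcription used T7 RNA polymerase at 37°C for 5 hours, with a further 15 min in DNase I before EDTA stopped the reaction; the ribozymes cleaved during both steps. The RNA was reverse transcribed with template switching and sequenced on Illumina. Relative activity is the cleaved/total read fraction of a variant divided by that of the unmutated ribozyme, averaged over three batches with at least 5 reads.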

Row | Variant | self-cleavage
1 | A35G G55U U60C U66C U72A | 0.67
2 | A35G G73A C79U | 1.31
3 | A35G U41A A45U A64G U72C | 0.15
4 | A35G U41A A56G U76A | 0.28
5 | A35G U41A C62U U78C | 0.15
6 | A35G U41A G52U C68G | 0.18
7 | A35G U41A G61A | 0.16
8 | A35G U41A G63A U72C A75G U80C | 0.21
9 | A35G U41A G63U | 0.32
10 | A35G U41A U51C | 0.16
11 | A35G U41A U51C U67C | 0.16
12 | A35G U41A U54C C59U | 0.18
13 | A35G U41C A65G U69C U72C | 0.83
14 | A35G U41C A77G | 1.27
15 | A35G U41C U49C A64G | 0.45
16 | A35G U41C U80C | 1.28
17 | A35G U43A U48C U54A | 1.25
18 | A35G U43A U49C A56U U67G U74C | 0.33
19 | A35G U43A U51A | 1.29
20 | A35G U43A U51A C81A | 1.31
21 | A35G U43C A45G U60C U74A U80C | 1.29
22 | A35G U43C A45U C50G U54A U78A | 0.47
23 | A35G U43C A56G G73A | 1.25
24 | A35G U43C A56G U69C | 0.08

Row | Variant | self-cleavage
25 | A35G U43C U49A U54A | 0.93
26 | A35G U43C U49G U76C | 0.92
27 | A35G U43C U51A | 1.24
28 | A35G U43C U54A G61U A64G U72C | 0.52
29 | A35G U43G A56U A64U A77U | 0.06
30 | A35G U48C A64G U67C C68U | 0.48
31 | A35G U48C G55C | 1.11
32 | A35G U48C U49C U74C | 1.09
33 | A35G U48C U54C A75G | 1
34 | A35G U48C U69C U72C | 0.55
35 | A35G U49C G53A U78A | 1.15
36 | A35G U49C U51A G53A A57U | 1.18
37 | A35G U49C U66C | 0.38
38 | A35G U51C A57G | 1.26
39 | A35G U51C A65G U72C | 1.05
40 | A35G U54A A65C C68A | 0.59
41 | A35G U54C A64U | 1.19
42 | A35G U54C U60C | 1.09
43 | A35G U54C U60G | 1.18
44 | A35G U58G A65G U66C | 0.41
45 | A35G U60A U69C A75G | 0.59
46 | A35G U60C A75U | 1.23
47 | A35G U60C U69A U76A | 0.56
48 | A35G U60C U72C | 1.19

Row | Variant | self-cleavage
49 | A35G U60C U78A | 1.23
50 | A35G U66C U74C | 1.37
51 | A35G U66G U69A | 0.65
52 | A35G U67A U78C | 1.24
53 | A35G U69A U72C | 1.1
54 | A35G U69C U72C | 1.05
55 | A35G U69C U76C | 1.01
56 | A35G U69G U78C | 1.2
57 | A35G U72C U74C | 1.39
58 | A35U A45G A56C | 0.08
59 | A35U A45G U72A A75G | 0.41
60 | A35U A45G U72G | 0.24
61 | A35U A45U A56G U80C | 0.08
62 | A35U A45U G63U U74C | 0.4
63 | A35U A45U U51A C71G | 0.11
64 | A35U A47G A64U U74A | 0.14
65 | A35U A47G U49C U51C U60C G63U U69C | 0.09
66 | A35U A47G U58C U66C | 0.15
67 | A35U A56U G63A | 0.25
68 | A35U A56U U67C | 0.18
69 | A35U A57G A64U U69C | 0.09
70 | A35U A57G U72C | 0.54
71 | A35U A64G U74C | 0.48
72 | A35U A65G U69C | 0.07

Row | Variant | self-cleavage
73 | A35U A65U C68G | 0.12
74 | A35U A75G U80A | 0.44
75 | A35U C37U U43C A75G | 0.1
76 | A35U C38A U80C | 0.3
77 | A35U C38U U60C A75G | 0.06
78 | A35U C40A A65G U66A | 0.16
79 | A35U C40A U51C U69C | 0.05
80 | A35U C40U A56G U78C | 0.15
81 | A35U G36C A56G A75U | 0.11
82 | A35U G36C U43A A47G U49C | 0.06
83 | A35U G36U C59U | 0.11
84 | A35U G53A A65G | 0.14
85 | A35U G53A U72C | 0.69
86 | A35U G53U A57G A65G U74C | 0.35
87 | A35U G63A U69C U76A | 0.12
88 | A35U U41A A45C C71G U72A | 0.07
89 | A35U U41A A64U G70A | 0.15
90 | A35U U41A C68G U69C | 0.1
91 | A35U U41A U43C G46U U48C A77U | 0.15
92 | A35U U41C A45G | 0.36
93 | A35U U41C A47G G55U U72A | 0.16
94 | A35U U41C A65G U67C | 0.12
95 | A35U U41C A75C | 0.57
96 | A35U U43A U48G | 0.22

Row | Variant | self-cleavage
97 | A35U U43A U51G U54A U72G | 0.89
98 | A35U U43A U67C | 0.32
99 | A35U U43C A45G U60A U67C | 0.36
100 | A35U U43C A47U U51A A56C | 0.15
101 | A35U U43C A56G A64G | 0.17
102 | A35U U43C A56U | 0.11
103 | A35U U43C U49C U54C | 0.23
104 | A35U U43C U54C A65G | 0.12
105 | A35U U43C U54C U69C U78A | 0.07
106 | A35U U48C A57G C59G U72C | 0.21
107 | A35U U48C A65G | 0.13
108 | A35U U48C A77G | 0.12
109 | A35U U48C U66C U67C | 0.13
110 | A35U U49C U60C | 0.09
111 | A35U U51A A65G U72A U78C U80C | 0.14
112 | A35U U51A G53U U80C | 0.75
113 | A35U U51C U69G U72C | 0.13
114 | A35U U54A A56G | 0.23
115 | A35U U54A A56U U72A | 0.14
116 | A35U U54A U58C U74C | 0.5
117 | A35U U54C U60C U66C | 0.15
118 | A35U U54C U66C | 0.08
119 | A35U U54C U67A | 0.09
120 | A35U U54C U72C U76C | 0.08

Row | Variant | self-cleavage
121 | A35U U54C U74C U78C | 0.91
122 | A35U U58C C59A | 0.09
123 | A35U U58G A64U | 0.1
124 | A35U U60G U66C G73A | 0.21
125 | A35U U66A U78A | 0.14
126 | A35U U66C U72A | 0.14
127 | A35U U66C U74C | 0.21
128 | A35U U67A U69C U80A | 0.09
129 | A35U U67A U72C | 0.14
130 | G36A A47G G55U U67C U69C U72C | 0.03
131 | G36A A47U U76C | 0.42
132 | G36A U41A U60A C68U | 0.1
133 | G36A U48C U74A | 0.17
134 | G36C C71U U74C | 0.1
135 | G36C U41A A65G | 0.17
136 | G36C U43C U78C U80C | 0.15
137 | G36U A45G A65G | 0.37
138 | G36U C40U U54C A64G C71G U76A | 0.05
139 | G36U U43A A45G | 0.12
140 | G36U U51A U72A U80C | 0.18
141 | G36U U51G U78A | 0.14
142 | G36U U67G G70C | 0.11
143 | G36U U67G U78C | 0.09
144 | C37A A45G U49C U66C | 0.16

Row | Variant | self-cleavage
145 | C37A A65G U67C | 0.14
146 | C37A A65G U67C U80A | 0.06
147 | C37A C39A A47G U54C | 0.09
148 | C37A U49C U58A U66C A75G U80C | 0.03
149 | C37A U51A U54C U58A | 0.14
150 | C37A U54C A56G | 0.36
151 | C37G A65G U80A | 0.51
152 | C37U A45G U54C C81A | 0.49
153 | C37U A45G U69A A77G | 0.07
154 | C37U A45U U78C | 0.27
155 | C37U A56G G70A U72A | 0.12
156 | C37U A56G U66C | 0.37
157 | C37U A64G U69A A77G | 0.14
158 | C37U C40A A45G | 0.3
159 | C37U C40U U58C U80A | 0.22
160 | C37U C44A U72C | 0.11
161 | C37U C59U C81A | 1.01
162 | C37U G42C U66C | 0.1
163 | C37U G42U A47G U48C | 0.14
164 | C37U U41C U72G | 0.66
165 | C37U U43C G73A | 0.85
166 | C37U U43C U76C U80C | 0.12
167 | C37U U54C U66A | 0.17
